Data reported in PubChem BioAssay AID2147 (National Center for Advancing Translational Sciences (NCATS), 2009).
The campaign covered roughly 230,000 compounds. About 3,600 (1.6%) were called active. This list was built around the results that the source calls inconclusive (neither active nor inactive); the mix of calls is not that of the screen. Calls come from the whole dose curve; as a rule, active = well fitted inhibition curve with a large enough effect (not every such curve was filed as active); inconclusive = small, poorly fitted or top-dose-only effect, or another doubt; inactive = no such curve, though single readings can be large or run the other way. Where the call is inconclusive, the potency comes from a doubtful curve fit.

molecular target: Lysine-specific demethylase 4E (Homo sapiens) (UniProt B2RXH2); experiment: qHTS Assay for Inhibitors of Human Jumonji Domain Containing 2E (JMJD2E); conditions: JMJD2E catalytic domain, FDH-coupled NADH fluorescence (FDH is formaldehyde dehydrogenase); series mostly up to 57.1 µM
Note: nearly all actives have a fitted effect of over 50% in size.
Potency is the fitted concentration of half-maximal effect; tags give direction and shape of the fitted curve.

UniProt B2RXH2, sequence (B2RXH2 whole entry, looked up, the tested form may be a part): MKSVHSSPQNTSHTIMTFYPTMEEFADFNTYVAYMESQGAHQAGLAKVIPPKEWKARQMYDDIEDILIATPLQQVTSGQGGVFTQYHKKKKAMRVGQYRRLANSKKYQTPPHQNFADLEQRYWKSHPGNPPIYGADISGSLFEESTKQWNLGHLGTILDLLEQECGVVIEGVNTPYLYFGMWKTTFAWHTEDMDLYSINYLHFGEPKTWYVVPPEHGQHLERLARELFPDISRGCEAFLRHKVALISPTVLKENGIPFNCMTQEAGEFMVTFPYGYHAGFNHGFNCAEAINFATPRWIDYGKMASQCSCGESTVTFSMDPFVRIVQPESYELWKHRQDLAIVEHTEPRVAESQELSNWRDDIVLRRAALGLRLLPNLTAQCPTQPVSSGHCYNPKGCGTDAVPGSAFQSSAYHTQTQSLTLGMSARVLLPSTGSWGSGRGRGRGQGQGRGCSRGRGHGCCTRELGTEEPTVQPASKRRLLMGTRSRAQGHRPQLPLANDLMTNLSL

SMILES	Potency
CC1Cc2ccccc2N1C(=O)COC(=O)Cn1nnc(-c2ccccc2)n1 (stereo not drawn)	inactive
Cc1c(Cl)c(-c2n[nH]c(=S)n2CC(C)C)nn1C	inactive
C=C1CCC(O)C/C1=C\C=C1/CCCC2(C)C1CCC2C(C)CCCC(C)C (stereo not drawn)	inactive
O=C(C1CCCN(Cc2cccc(F)c2)C1)N1CCCCC1 (stereo not drawn)	inconclusive: 35.5 µM [inhibitor, single point]
Cc1ccccc1NN=Nc1nc2c([nH]1)c(=O)n(C)c(=O)n2C	inactive
O=C(O)c1nc(-c2ccccc2)n(-c2ccccc2)n1	inactive
Cc1nn(Cc2c(Cl)cccc2Cl)c(C)c1C(=O)NCc1ccc(C)n1C	inconclusive: 28.2 µM [inhibitor, single point]
CCCCCC(=O)Nc1sc(C)c(C)c1C#N	inactive
COc1ccc(C2=CC(=O)OC(C)(c3ccccc3)O2)cc1 (stereo not drawn)	inconclusive: 39.8 µM [inhibitor, single point]
C/C(=N\NC(=O)c1ccc(N(C)C)cc1)c1ccc(C)cc1C	inactive
COC(=O)c1ccc(Nc2nnc(-c3ccc(C)c(S(=O)(=O)NCC4CCCO4)c3)c3ccccc23)cc1 (stereo not drawn)	inconclusive: 35.5 µM [inhibitor, single point]
S=C(Nc1ccc(Cl)cc1)NC1CCCCC1	inactive
Cc1cc2nc(N=C(N)N)nc(C)c2cc1C	inconclusive: 39.8 µM [inhibitor, single point]
Cc1cc(S(=O)(=O)Nc2ccc3c(c2)COC3=O)ccc1F	inconclusive: 39.8 µM [inhibitor, single point]
CCOc1ccc(-n2c(SCC(=O)Nc3cc(OC)c([N+](=O)[O-])cc3C)nc3ccccc32)cc1	inactive
Cc1cc(C)n(-c2nc(NCCCO)c3c4c(sc3n2)CCCC4)n1	inconclusive: 25.1 µM [inhibitor, partial curve]
Cc1ccc(OCCn2cnc3sc(C(N)=O)c(C)c3c2=O)cc1	inconclusive: 35.5 µM [inhibitor, single point]
COc1cc(OC)cc(C(=O)NNc2nc3cc4c(cc3s2)OCO4)c1	inconclusive: 28.2 µM [inhibitor, single point]
Cc1cc(=O)c2c(C)ccc(C)c2[nH]1	inconclusive: 35.5 µM [inhibitor, single point]
COc1cc(/C=C(\C#N)c2nc3ccc(C)cc3[nH]2)c([N+](=O)[O-])cc1OC	inactive
COc1ccc(-c2ncc3ccccn23)cc1	inconclusive: 31.6 µM [inhibitor, partial curve]
COc1cc(C)c(CNc2ccc(OC)c(OC)c2)cc1C	inconclusive: 28.2 µM [inhibitor, partial curve]
CCC1CCCCN1CCCNC(=O)CNC(=O)Cn1ccc2ccccc2c1=O (stereo not drawn)	inconclusive: 39.8 µM [inhibitor, single point]
CCC(C)NC(=O)CCCCCn1c(=O)[nH]c2cc(OC)c(OC)cc2c1=O (stereo not drawn)	inconclusive: 28.2 µM [inhibitor, partial curve]
CCOC(=O)N1CCc2c(sc3nc[nH]c(=O)c23)C1	inconclusive: 39.8 µM [inhibitor, single point]

SMILES	Potency
O=C(Nn1c(C2CCCCC2)nc2ccccc2c1=O)c1ccc(Cl)c([N+](=O)[O-])c1	inactive
CC1CCN(S(=O)(=O)c2ccc3ccccc3c2)CC1	inactive
c1ccc(-c2nnc(-c3ccco3)o2)cc1	inconclusive: 31.6 µM [inhibitor, partial curve]
C=CCn1c(SCc2ccc(C(=O)Nc3nccs3)cc2)nnc1-c1ccc(C)c(Cl)c1	inconclusive: 35.5 µM [inhibitor, single point]
COc1cc(C(=O)NNc2nc3cc4c(cc3s2)OCO4)cc(OC)c1OC	inconclusive: 39.8 µM [inhibitor, single point]
Cc1noc(C)c1CSc1ncnc2sc3c(c12)CCCCC3	inconclusive: 39.8 µM [inhibitor, single point]
Nn1c(=S)[nH]nc(Cc2ccc(O)cc2)c1=O	inconclusive: 20 µM [inhibitor, single point]
Cc1cc(C(F)(F)F)c(C#N)c(SCC(=O)Nc2nc3ccccc3s2)n1	inactive
O=C(c1cccs1)N1CCN(Cc2ccccc2)CC1	inactive
CCn1nc(-c2ccccc2)c2nc3ccccc3nc21	inconclusive: 39.8 µM [inhibitor, single point]
Cc1cc(NCCCN2CCOCC2)n2nc(C)c(-c3ccccc3)c2n1	inconclusive: 39.8 µM [inhibitor, single point]
Oc1ccc(F)c2cccnc12	active: 20 µM
CCN1CCN(c2cc(C)c3cc(NC(=S)N4CCCC(C)C4)ccc3n2)CC1 (stereo not drawn)	inconclusive: 25.1 µM [inhibitor, partial curve]
CC1CCc2nn(CC(=O)NC3CCCC(C)C3C)cc2C1 (stereo not drawn)	inactive
CN(C)c1ccc(-c2nc(NCc3cccnc3)c3ccccc3n2)cc1	inconclusive: 25.1 µM [inhibitor, partial curve]
S=C(Nc1ccccc1Cl)NC1CCN(Cc2ccccc2)CC1	inactive
Cc1c(C(=O)Nc2ccncc2)sc2nc(-c3ccccc3)cn12	inconclusive: 35.5 µM [inhibitor, single point]
O=C(CCCCCN1C(=O)c2ccccc2C1=O)Nc1nccs1	inactive
CCOC(=O)Cc1csc(/N=C/c2c(O)n(-c3ccc(C)cc3C)c(=O)c3ccccc23)n1	inconclusive: 17.8 µM [inhibitor, partial curve]
Cn1ccc(-c2ccccc2)c(C#N)c1=O	inconclusive: 31.6 µM [inhibitor, partial curve]
COc1cc(C(=O)N/N=C/c2ccccn2)cc(OC)c1OC	inconclusive: 20 µM [inhibitor, single point]
COc1ccc(N(C(=O)CCl)C(C(=O)NCCc2ccccc2)c2cccs2)cc1Cl (stereo not drawn)	inactive
CC(C)(C)n1cnc2cc(NCc3cccs3)ccc21	inconclusive: 39.8 µM [inhibitor, single point]
Cc1ccc(CSC2=Nc3sccc3C3=NC(=O)CN23)cc1	inactive
COc1cc(/C=C2/C(=O)NN(c3cccc(F)c3)C2=O)ccc1OC(=O)c1ccco1	inactive

SMILES	Potency
COc1ccc2c(c1)c(=O)c(C(=O)O)c(-c1ccc3c(c1)OCO3)n2C	inconclusive: 31.6 µM [inhibitor, single point]
Cc1ccc(-n2ncc3c(NCc4ccco4)ncnc32)cc1C	inconclusive: 31.6 µM [inhibitor, single point]
CN(C)S(=O)(=O)c1cccc(-c2csc(=Nc3ccccc3)n2CCCN2CCOCC2)c1	inactive
CCCOc1ccc2c(C)c(CC(=O)OC)c(=O)oc2c1	inconclusive: 12.6 µM [inhibitor, partial curve]
CCOC(=O)CC(=O)CSc1nc(-c2ccccc2)cc(-c2ccccc2)c1C#N	inconclusive: 28.2 µM [inhibitor, partial curve]
O=C(Nc1nc(-c2ccccc2)cs1)c1ccc2c(=O)n3c(nc2c1)CCCCC3	inconclusive: 28.2 µM [inhibitor, single point]
CCOc1cc(CNC2CCCC2)c(Cl)cc1OCC(=O)Nc1ccccc1	inactive
Cc1cc(C)n(Cc2cccc(F)c2)c(=O)c1C#N	inconclusive: 31.6 µM [inhibitor, single point]
O=c1cc(CO)oc(CN2CCN(Cc3ccccc3)CC2)c1O	inconclusive: 39.8 µM [inhibitor, single point]
CC[n+]1ccc(/C=C/c2ccc(N(C)C)cc2)c2ccccc21	inconclusive: 15.8 µM [inhibitor, partial curve]
COc1ccc(-c2nc3ccccc3s2)cc1O	inconclusive: 39.8 µM [inhibitor, single point]
Cc1nn(C)c(C)c1CN(C)C(=O)C1c2ccccc2Oc2ccccc21	inconclusive: 39.8 µM [inhibitor, single point]
CCCCn1c(=O)c(CCC(=O)OCC(=O)NCc2ccc(OC)c(OC)c2)nc2ccccc21	inconclusive: 25.1 µM [inhibitor, partial curve]
CCCS(=O)(=O)N1CCC(C(=O)NC2CCC(C)CC2)CC1 (stereo not drawn)	inactive
COc1ccc2[nH]c3c(N4CCN(Cc5ccc6c(c5)OCO6)CC4)ncnc3c2c1	inconclusive: 28.2 µM [inhibitor, partial curve]
Cc1ccc(/C=C/C(=O)Nc2ccccc2C(N)=O)cc1	inconclusive: 35.5 µM [inhibitor, single point]
CCc1ccc2c(c1)C(C)=CC(C)(C)N2	inconclusive: 31.6 µM [inhibitor, partial curve]
Cc1cccc(C(=O)CC(=O)c2cc(Cl)ccc2O)c1	inconclusive: 39.8 µM [inhibitor, single point]
COc1ccc(NC(=O)/C=C/c2ccc3c(c2)OCO3)cc1	inconclusive: 35.5 µM [inhibitor, single point]
CC(=O)OCC1=C(C(=O)O)N2C(=O)[C@@H](NC(=O)CSc3ccncc3)[C@H]2SC1	inconclusive: 25.1 µM [inhibitor, single point]
CCOC(=O)c1oc2nc(C(C)C)c3c(c2c1N)CC(C)(C)OC3	inconclusive: 28.2 µM [inhibitor, partial curve]
COc1ccc(/C=C/C(=O)N(Cc2cccs2)C2CCS(=O)(=O)C2)cc1 (stereo not drawn)	inactive
COc1ccc(F)cc1C(=O)C1CCCN(Cc2cccn2-c2cccnc2)C1 (stereo not drawn)	inconclusive: 28.2 µM [inhibitor, partial curve]
